# Results as given in paper PMC4336329 (PLoS ONE, 2015).
# The campaign covered roughly 310,000 compounds. About 2,200 (0.71%) showed an effect of 50% or more. Effects have a minus sign here. This is one part of the list.
# Biological target: human ether-à-go-go-related gene (hERG) potassium channel (human, UniProt Q12809)
# Experiment: primary screen, population patch clamp on CHO cells stably expressing hERG
# Chain of human ether-à-go-go-related gene (hERG) potassium channel (Q12809 whole entry, looked up): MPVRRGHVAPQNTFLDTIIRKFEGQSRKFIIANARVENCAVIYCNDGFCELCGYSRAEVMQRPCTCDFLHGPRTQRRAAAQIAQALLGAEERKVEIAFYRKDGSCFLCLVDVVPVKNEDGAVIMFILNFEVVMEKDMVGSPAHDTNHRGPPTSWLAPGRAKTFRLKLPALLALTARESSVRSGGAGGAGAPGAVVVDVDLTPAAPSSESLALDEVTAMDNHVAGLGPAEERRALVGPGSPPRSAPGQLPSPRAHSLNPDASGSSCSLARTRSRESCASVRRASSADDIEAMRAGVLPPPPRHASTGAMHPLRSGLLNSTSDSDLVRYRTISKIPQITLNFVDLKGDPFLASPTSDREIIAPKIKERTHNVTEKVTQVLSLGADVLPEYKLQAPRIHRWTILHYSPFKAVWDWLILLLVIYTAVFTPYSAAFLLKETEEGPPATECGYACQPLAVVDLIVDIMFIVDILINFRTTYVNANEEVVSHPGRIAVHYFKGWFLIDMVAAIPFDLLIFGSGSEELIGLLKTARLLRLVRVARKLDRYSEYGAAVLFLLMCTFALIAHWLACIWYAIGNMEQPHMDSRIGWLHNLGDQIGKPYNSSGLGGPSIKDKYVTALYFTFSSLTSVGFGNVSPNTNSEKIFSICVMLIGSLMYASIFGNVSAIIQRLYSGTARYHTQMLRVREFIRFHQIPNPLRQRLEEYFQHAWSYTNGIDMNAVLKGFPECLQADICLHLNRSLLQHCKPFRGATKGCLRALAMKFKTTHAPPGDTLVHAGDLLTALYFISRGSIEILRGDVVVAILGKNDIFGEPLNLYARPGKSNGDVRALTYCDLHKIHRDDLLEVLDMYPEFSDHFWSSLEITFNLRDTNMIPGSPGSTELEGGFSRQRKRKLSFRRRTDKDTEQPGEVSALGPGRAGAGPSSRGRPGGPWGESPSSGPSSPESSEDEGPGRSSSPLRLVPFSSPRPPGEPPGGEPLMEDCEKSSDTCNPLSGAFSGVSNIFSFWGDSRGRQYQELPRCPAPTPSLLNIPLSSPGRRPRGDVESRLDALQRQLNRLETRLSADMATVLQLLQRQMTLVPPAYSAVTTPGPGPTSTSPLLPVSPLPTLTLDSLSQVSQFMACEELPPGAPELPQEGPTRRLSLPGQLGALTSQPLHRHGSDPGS
row,Structure (SMILES),"hERG current change (%, negative = inhibition) at 1uM"
1,CCOC(=O)Cc1csc(NC(=O)CC(C)(C)CC(=O)O)n1,9.7%
2,Cc1ccc(C)c(NC(=S)N2CCC(c3nc4ccccc4s3)CC2)c1,3.75%
3,Cc1ccc(Cn2c(=N)c(S(=O)(=O)c3ccc(Br)cc3)cc3c(=O)n4ccccc4nc32)cc1,26.5%
4,CC1(c2ccc(OCC#N)cc2)C=C(c2ccc(OCC#N)cc2)n2nc(C(F)(F)F)nc2N1 (centres unmarked),-10.7%
5,Cc1ccc(-c2noc(CNC(=O)COc3ccccc3C)n2)cc1,0.93%
6,O=C(O)c1cc([N+](=O)[O-])c(N2CCCC2)c([N+](=O)[O-])c1,-2.79%
7,CC(C)C(=O)Nc1nnc(CSCc2ccccc2F)s1,-7.85%
8,COc1ccc(CCNC(=O)C(C(=O)c2ccc(F)cc2)n2ccccc2=O)cc1OC (centres unmarked),3.88%
9,Cc1ccc(NC(=O)Cn2nnc(C(=O)NCc3ccc(Cl)cc3)c2N)cc1F,10.1%
10,C=C1C[C@@]23CCC4[C@@](C)(CCC[C@@]4(C)C(=O)OC)C2CC[C@]1(OC(C)=O)C3 (some centres unmarked),8.87%
11,CN1C(=O)C(CC(=O)Nc2ccc(F)cc2)N(NC(=O)c2cccc(F)c2)C1=S (centres unmarked),7.6%
12,O=C(N/N=C/c1ccc[nH]1)c1ccc2c(c1)OCO2,3.63%
13,N#CCCN(C(=O)CSc1nc2nc(-c3cccs3)cc(C(F)(F)F)c2c(=O)[nH]1)c1ccccc1,16.3%
14,Fc1cccc(CN2CCN3CCCC3C2C2CCCCC2)c1 (centres unmarked),5.62%
15,CCOC(=O)c1cnc(Nc2nc3ccccc3o2)nc1CSC(=S)N1CCCCC1,12.6%
16,COc1cc(C(=O)NCCc2ccccc2)ccc1OCC(=O)N1CCOCC1,20.2%
17,CN(C)CC(=O)N1CCc2ccccc2C1.O=C(O)C(=O)O,17.5%
18,CC(C)(C)NC(=O)CCn1nc(-c2ccc(Cl)cc2)c2ccccc2c1=O,7.07%
19,CCOC(=O)C1CCN(C(=O)C2CCN(S(=O)(=O)N3CCCC3)CC2)CC1,-32.9%
20,Cc1cc(-c2nnnn2-c2ccc(C(F)(F)F)cc2)no1,-0.0584%
21,Cc1nn(-c2ccccc2)c(Cl)c1/C=N/NC(=O)CCNc1n[nH]c(=O)[nH]c1=O,7.23%
22,O=C(NCC(O)c1ccccc1)Nc1cccs1 (centres unmarked),14.3%

row,Structure (SMILES),"hERG current change (%, negative = inhibition) at 1uM"
1,CC(=O)N1N=C(c2ccco2)CC1c1cccs1 (centres unmarked),14.6%
2,COc1c2c(nc3occc13)C(CC=C(C)C)(OC)C(O)CC2 (centres unmarked),13.1%
3,COc1ccc(CCC(=O)NCc2cn3ccc(C)cc3n2)cc1,-3.05%
4,Cc1ccc(/C=C2\NC(=S)NC2=O)cc1[N+](=O)[O-],16.9%
5,COc1ccc(NC(=O)CCC(=O)OCc2ccc([N+](=O)[O-])cc2)cc1,6.84%
6,COc1ccc(NC(=S)Nc2ccc(S(=O)(=O)N3CCOCC3)cc2)c(OC)c1,12.8%
7,CCN(CC)c1ccc(-c2n[nH]c(=S)n2-c2ccccc2)cc1,10.5%
8,c1ccc(C2CCC(N3CCC(N4CCCCC4)CC3)CC2)cc1 (centres unmarked),12.2%
9,CCOC(=O)c1cc(-c2ccccc2)n(CC(=O)Nc2ccc(OCC)cc2)c1C,11.1%
10,CC(C)N(CCCNC(=O)Cn1ncc2c([nH]c3ccccc32)c1=O)Cc1ccccc1,-12.1%
11,CCCc1cc(=O)[nH]c(SCC(=O)Nc2cccc(S(=O)(=O)N3CCCCC3)c2)n1,-6.15%
12,Cc1ccc(S(=O)(=O)C(C)C(=O)NCCS(=O)(=O)c2ccc(Cl)cc2)cc1 (centres unmarked),1.7%
13,CCCCn1nc(C(=O)N2CCc3ccccc32)c2ccccc2c1=O,-1.02%
14,O=C1CC(N2CCN(c3ccc(F)cc3)CC2)C(=O)N1c1ccc(F)cc1 (centres unmarked),12.9%
15,COC(CNC(=O)c1ccc2c(c1)nc(C)n2-c1ccc(F)c(F)c1)OC,-12.1%
16,O=C(COc1ccccc1)NCC(=O)N/N=C/c1ccccc1,12.9%
17,COc1ccc(CN(C(=O)c2cnccn2)C(C(=O)NC(C)(C)C)c2cc(OC)c(OC)c(OC)c2)cc1 (centres unmarked),0.745%
18,Cc1ccc(S(=O)(=O)N2CC(O)C2)cc1,20.1%
19,Cn1c(SCc2nc(-c3ccc(Cl)cc3)no2)nnc1-c1ccccc1,4.19%
20,N#Cc1c(C#N)c(-c2ccccc2)n(-c2ccc(C(=O)O)cc2)c1N,9.65%
21,CNC(=S)/N=C/NOCc1c(Cl)cccc1Cl,3.32%
22,CC(=O)Nc1ccc(S(=O)(=O)NC(C)c2nc(-c3ccccc3)no2)cc1 (centres unmarked),11.5%

row,Structure (SMILES),"hERG current change (%, negative = inhibition) at 1uM"
1,COc1ccc(NC(C)=O)cc1CNC(=O)COc1ccccc1C(=O)Nc1cccc(C)c1C,6.29%
2,C=CCNC(=S)NNC(=O)c1cccc(Br)c1,19.2%
3,CCOC(=O)Cc1csc(NS(=O)(=O)c2ccc(NC(C)=O)cc2)n1,13.6%
4,Cc1ccc2c(c1)Oc1ccc(NC(=O)CCl)cc1C(=O)N2,9.67%
5,NS(=O)(=O)c1ccc(N=Nc2c(O)c(C(=O)O)cc3ccccc23)cc1,13.8%
6,Cc1ccc(C)c(NC(=O)c2nnn(Cc3ccccc3C)c2N)c1,19%
7,Cc1ccc(-n2c3c(cc(C(=O)NCc4ccco4)c2=O)C(=O)CC(C)(C)C3)cc1,14%
8,CCc1ccc(CNC(=O)CCc2cn(C)c3ccccc23)cc1,8.36%
9,Cc1ccnc(NC(=O)CNC(=O)c2cccs2)c1,9.92%
10,C#CC1(O)CC(C)N(C)C(C)C1.Cl (centres unmarked),6.28%
11,CN(C)CC[C@@H](c1ccc(Br)cc1)c1ccccn1.O=C(O)/C=C\C(=O)O,-1.19%
12,O=[N+]([O-])c1ccc(SCCc2ccncc2)cc1,-24.4%
13,COc1ccc(C)cc1NC(=O)C(OC(=O)CNC(=O)c1ccc(Br)cc1)c1ccccc1 (centres unmarked),11.1%
14,N#Cc1nc(Nc2cc(F)cc(F)c2)c2ncn(CC(F)F)c2n1,19.5%
15,Cc1cc(C(=O)Nc2ccc(F)c(Cl)c2)on1,16.8%
16,CC(=O)N1CCN(S(=O)(=O)c2ccc(F)c(Cl)c2)CC1,7.48%
17,COCC(=O)OCC(=O)N1N=C(c2ccc(Cl)cc2)CC1c1ccco1 (centres unmarked),13.1%
18,Cc1ccc(NC(=O)[C@H](Cc2ccccc2)NC(=O)C2CCNCC2)cc1,7.62%
19,CC1=C(C(=O)OCc2ccccc2)C(c2ccc(Br)cc2)NC(=O)N1CCCC(=O)O (centres unmarked),13.6%
20,O=C(Nc1cccc(O)c1)c1ccc2c(c1)C(=O)N(Cc1ccco1)C2=O,4.23%
21,Cc1ccc(S(=O)(=O)N(C)C)cc1NC(=O)C(C)Sc1ccccc1 (centres unmarked),6.62%
22,CC(CCc1ccco1)NC(=O)Cn1nc(Cc2ccncc2)c2ccccc2c1=O (centres unmarked),-20.2%

row,Structure (SMILES),"hERG current change (%, negative = inhibition) at 1uM"
1,O=C(Nc1ccccc1)N(Cc1ccccc1)CC(O)C(F)(F)F (centres unmarked),14.5%
2,C=CCOc1ccc(CN(C)CC(=O)N(CC(C)C)c2c(N)n(CC(C)C)c(=O)[nH]c2=O)cc1,13.3%
3,COc1cc(/C=C2\C(=O)N(CCC#N)N=C2C)ccc1OCC(=O)Nc1ccccc1,1.11%
4,COc1ccc(Cl)cc1NC(=O)Nn1cnnc1,0.286%
5,NC(=O)c1ccc(NC(=O)c2ccccc2S(=O)(=O)c2ccccc2[N+](=O)[O-])cc1,7.15%
6,C/C(=N\NC(=O)CNC(=O)c1ccc2c(c1)OCCO2)c1ccco1,13.5%
7,CCOC(=O)C(C)N1N=C(/C=C/c2ccc(OC)cc2)CCC1=O (centres unmarked),10.3%
8,CCCCN(C(=O)C(C)Oc1cccc(Cl)c1)c1c(N)n(CCC)c(=O)[nH]c1=O (centres unmarked),3.62%
9,O=C(CSc1nc2ccccc2c(=O)n1-c1cccc(C(F)(F)F)c1)NC1CC1,4.73%
10,Cc1noc(C)c1S(=O)(=O)N(CC(=O)NCCc1ccccc1)c1ccc(C(C)C)cc1,13%
11,COc1cccc(NC(=O)CSc2nnc(-c3cccnc3)o2)c1,13.2%
12,Cc1ccc(C)c(-c2nnc(NC(=O)CCS(=O)(=O)c3ccc(F)cc3)o2)c1,-7.35%
13,COc1ccccc1CNC(=S)NC1CCCC1,17.5%
14,CCN(C(=O)COC(=O)c1ccc(S(=O)(=O)N2CCCc3ccccc32)cc1)C1CCS(=O)(=O)C1 (centres unmarked),7.48%
15,COc1cc(/C=C2\SC(=Nc3cccnc3)NC2=O)cc(OC)c1OC,16.2%
16,COc1ccc(C(=O)Nc2ccc(N3CCN(C)CC3)cc2)cc1,11.9%
17,Cc1ccc(C2C(C#N)=C(N)Oc3cc(N)ccc32)cc1 (centres unmarked),12.1%
18,O=C(Nc1ccc(S(=O)(=O)NC2=NCCCCC2)cc1)c1ccccc1Cl,4.57%
19,O=S1(=O)CC(O)C(N=Nc2c(O)n(Cc3ccccc3)c3ccccc23)C1 (centres unmarked),10.1%
20,COc1ccc(OC)c(/C=C/C(=O)OCC(=O)Nc2cccc(C(C)=O)c2)c1,8.22%
